# According to PubChem BioAssay AID1631 (National Center for Advancing Translational Sciences (NCATS), 2009):
# Among all 260,000 compounds or so, about 890 (0.34%) were called active. Inconclusive means that the source gave no clear call. Such entries were picked first, then a sample of the others. The call rests on the fitted dose curve; in most records, active means well fitted activation curve with a large enough effect; inconclusive means small, poorly fitted or top-dose-only effect; inactive means no such curve, though single readings can be large or run the other way. Potencies of inconclusive entries are left out as doubtful fits.
# Molecular target: Pyruvate kinase PKM (Homo sapiens) (UniProt P14618)
# Sequence of UniProt P14618 (P14618 whole entry, looked up, canonical isoform): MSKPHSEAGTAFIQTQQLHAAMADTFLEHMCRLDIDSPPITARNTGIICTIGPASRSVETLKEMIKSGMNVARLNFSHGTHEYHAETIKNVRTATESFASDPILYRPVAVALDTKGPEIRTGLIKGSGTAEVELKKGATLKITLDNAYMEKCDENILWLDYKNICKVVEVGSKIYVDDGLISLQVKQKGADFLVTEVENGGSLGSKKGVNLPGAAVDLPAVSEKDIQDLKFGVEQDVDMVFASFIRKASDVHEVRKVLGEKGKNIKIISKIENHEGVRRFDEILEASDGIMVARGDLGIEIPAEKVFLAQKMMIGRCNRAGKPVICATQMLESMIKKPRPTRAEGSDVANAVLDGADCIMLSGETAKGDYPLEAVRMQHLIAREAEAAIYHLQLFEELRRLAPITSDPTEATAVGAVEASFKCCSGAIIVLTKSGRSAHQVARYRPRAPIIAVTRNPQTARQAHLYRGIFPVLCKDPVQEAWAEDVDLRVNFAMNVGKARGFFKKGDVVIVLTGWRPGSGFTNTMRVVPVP
# Assay: qHTS Assay for Activators of Human Muscle isoform 2 Pyruvate Kinase; further: nearly all actives have a fitted effect of over 55% in size
# Conditions: purified PKM2, Kinase-Glo ATP luminescence; Potency: activation; activation: at 57.5 µM (top of the series), 0% is enzyme alone, no compound
# Outline: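 Purified hPK-M2 (>95% pure) converted ADP (0.1 mM final) to ATP with 0.5 mM PEP in 50 mM imidazole pH7.2, KCl, MgCl2, Tween 20, BSA; 1 h at room temperature. ATP detected by Kinase-Glo luminescence.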
# On the % scale 0 is the no-effect control and ±100 the full control effect; potency means the concentration at half of the fitted maximal effect; tags describe the fitted curve by direction and shape.
SMILES,activation,Potency
COC(=O)C1=NN(c2ccccc2OC)C2C(=O)N(c3ccccc3OC)C(=O)C12 (stereo unspecified),inactive: -20.4%,–
COC(=O)C1=C(C)N(Cc2ccco2)C(=O)N[C@H]1c1cccc(C(F)(F)F)c1,–,"inconclusive [rising, single point]"
O=C(O)Cn1c2ccccc2c2n[nH]c(=S)nc21,inactive: -6.75%,–
COc1cc(OC)c(Cl)cc1N,inactive: 0.827%,–
COc1ccc(OCCCC(=O)OC(C)C(=O)Nc2ccc(NC(C)=O)cc2)cc1 (stereo unspecified),inactive: 7.56%,–
CCCCC1=CC2=C(c3ccco3)C(=O)C(C)(OC(=O)c3ccc(OC)cc3)C(=O)C2=CN1c1ccccc1 (stereo unspecified),–,"inconclusive [rising, single point]"
O=C(CN1CCN(Cc2ccc3c(c2)OCO3)CC1)Nc1cc(S(=O)(=O)N2CCCC2)ccc1Cl,inactive: 0.141%,–
CO/N=C(\Cn1ncc(N2CCCC2)c(Br)c1=O)c1ccc(Cl)cc1,–,"inconclusive [rising, single point]"
O=C(c1ccc(-c2ccc([N+](=O)[O-])cc2)o1)N1CCCCC1,–,"inconclusive [rising, single point]"
Cc1noc(NS(=O)(=O)c2ccc(NC(=O)COc3ccc(Cl)cc3Cl)cc2)c1C,inactive: -15.2%,–
COC(=O)C1=C(C(=O)OC)SC(=C2C(=S)C(C)(C)N(C(=O)C3CC3)c3ccccc32)S1,inactive: -8.16%,–
CC/C(O)=C1\C(=O)CCCC1=NCCc1c(C)[nH]c2ccc(C)cc12,–,"inconclusive [rising, partial curve, poor fit]"
COc1c(C)cc(Br)cc1C(=O)Nc1ccccc1C,–,"inconclusive [rising, single point]"
O=C(NCc1ccc(F)cc1)N1CCN(S(=O)(=O)c2ccccc2F)CC1,–,active: 11.2 µM
Cc1ccccc1C(=O)Nc1nc(SCc2ccc(Cl)cc2)n[nH]1,–,"inconclusive [rising, single point]"
O=C(Nc1ccccc1)c1cn2ccccc2n1,inactive: -18.4%,–
COC(=O)c1c(NC(=O)c2ccc(N(C)S(=O)(=O)c3ccc(C)cc3)cc2)sc2c1CCCC2,inactive: -1.58%,–
COc1ccccc1NC(=O)N(Cc1ccco1)Cc1cc2ccc(C)c(C)c2[nH]c1=O,–,active: 15.8 µM
N/C(=N\OC(=O)/C=C/c1ccccc1)c1ccccn1,inactive: -30.1%,–
CC(=O)CC1OC(=O)C(Br)=C1NCc1ccccc1 (stereo unspecified),inactive: -1.87%,–
COc1cccc(-c2csc3nc[nH]c(=O)c23)c1,–,active: 28.2 µM
COc1ccc(Oc2ccc3c(C(F)(F)F)cc(C(F)(F)F)nc3n2)cc1,inactive: -3.13%,–
CCN(CC)C(=O)c1cc2c(=O)n3ccccc3nc2s1,inactive: -6.41%,–
O=C(CSc1n[nH]c(-c2cccs2)n1)N1CCN(S(=O)(=O)c2ccc3ccccc3c2)CC1,–,"inconclusive [rising, partial curve]"
NNc1nc2ccccc2nc1C(F)(F)F,inactive: -0.676%,–
COCCCNC(=S)NCCNc1nc2cc(C)cc(C)c2cc1C#N,inactive: -31.6%,–

SMILES,activation,Potency
CCc1nc2c(sc3nc4c(cc32)COC(C)(C)C4)c(=O)n1Cc1ccco1,–,"inconclusive [rising, partial curve, poor fit]"
O=C1C2C3C=CC(CNS(=O)(=O)c4ccccc4)(O3)C2C(=O)N1c1ccc(Cl)cc1 (stereo unspecified),–,"inconclusive [rising, single point]"
NS(=O)(=O)c1ccc(CNS(=O)(=O)c2ccc(Cl)nc2)cc1,–,"inconclusive [rising, single point]"
COC(=O)c1ccc(-n2c(C)ccc2-c2ccccc2)cc1,–,"inconclusive [rising, partial curve]"
CCS(=O)(=O)N1CCN(Cc2ccccc2OC)CC1,inactive: -1.17%,–
O=C(CCn1cncn1)N1CCN(S(=O)(=O)c2ccc(Cl)cc2)CC1,–,"inconclusive [rising, partial curve]"
CC(=O)c1c(C)[nH]c(C(=O)N2CCc3ccccc32)c1C,–,"inconclusive [rising, single point]"
C/C(=N/NC(=O)c1ccccn1)c1c[nH]c2ccccc12,inactive: -2.68%,–
CCC(C)NC(=O)CSc1nc2ccccc2c(=O)n1-c1c(C)n(C)n(-c2ccccc2)c1=O (stereo unspecified),–,"inconclusive [rising, single point]"
COc1ccc(C(=O)/C=C/C(=O)N(CC(=O)NC2CCCCC2)Cc2ccccc2)c(O)c1,–,active: 3.55 µM
C=CCn1c2ccccc2c(=O)c2cc(C#CC3(O)CCCCC3)ccc21,inactive: 7.9%,–
COc1ccccc1NC(=S)N(Cc1ccco1)Cc1cc2ccc(C)c(C)c2[nH]c1=O,–,"inconclusive [rising, single point]"
COc1ccc(C(=O)/C=C/C(=O)N(CC(=O)NC2CCCCC2)CC2CCCO2)c(O)c1 (stereo unspecified),–,active: 7.94 µM
Cc1ccc(NC(=O)c2ccc(CSc3nccc(C)n3)cc2)cc1,–,"inconclusive [rising, single point]"
COc1ccc(N2C(=O)/C(=C\c3ccco3)N=C2SCC(=O)N(C(C)C)C(C)C)cc1Cl,–,"inconclusive [rising, single point]"
CCN1C(=O)C(CC(=O)Nc2ccc(OC)cc2)N(CCN2CCOCC2)C1=S (stereo unspecified),–,"inconclusive [rising, single point]"
O=C(Nc1ccccc1Oc1ccccc1)C1CCCC1,inactive: -3.1%,–
CCS(=O)(=O)Nc1cccc(C2=NN(C(=O)c3ccco3)C(c3ccco3)C2)c1 (stereo unspecified),–,"inconclusive [rising, single point]"
O=C1NN(c2ccccc2)C(=O)/C1=C\c1coc2ccc(O)cc2c1=O,–,"inconclusive [rising, single point]"
Cc1cc2c(c(=O)o1)C(c1cccs1)C(C#N)=C(N)O2 (stereo unspecified),inactive: 8.38%,–
CCn1ncc(C2=NOC(C(=O)NCc3ccccc3)C2)c1C (stereo unspecified),inactive: -15.4%,–
Cc1cc(O)c(C(C)C)cc1N=Cc1ccccc1O,–,"inconclusive [rising, partial curve]"
O=C(NCc1ccccc1Cl)C1CCN(S(=O)(=O)c2cccs2)CC1,–,active: 10 µM
Cc1cc(N2CCCC2=O)cc(C)c1S(=O)(=O)Nc1c(C)nn(C)c1C,–,"inconclusive [rising, partial curve]"
S=c1[nH]nc(-c2ccncc2)n1/N=C/c1cn(-c2ccccc2)nc1-c1ccc(Cl)cc1,–,"inconclusive [rising, single point]"
CCOc1cccc(-c2nnc(SCC(=O)Nc3cc(C)ccc3OC)n2N)c1,inactive: -8.1%,–

SMILES,activation,Potency
COc1ccc(CCC(=O)Nc2ccc3c(c2)OCO3)cc1OC,inactive: 0.468%,–
COC(=O)c1ccc(COc2ccc(/C=N/N3CCN(C)CC3)cc2)cc1,–,"inconclusive [rising, single point]"
COc1ccc(C(CCNC(C)c2ccccc2)C(C)C)cc1 (stereo unspecified),–,"inconclusive [rising, single point]"
CC(/C=C/c1ccc(C)o1)=C\C(=O)O,–,"inconclusive [rising, full curve]"
COc1ccc(NC(=O)CSc2nc3c(c(-c4cccs4)c2C#N)CN(C)CC3)cc1OC,–,"inconclusive [rising, single point]"
O=C(Nc1ccc2c(c1)C(=O)NC2=O)c1cc(Cl)ccc1Cl,–,"inconclusive [rising, single point]"
COc1ccc(NC(=O)/C(Cl)=C(/Cl)S(=O)Cc2ccc(Cl)cc2)cn1 (stereo unspecified),–,"inconclusive [rising, single point]"
O=C(CSc1nc2[nH]ncc2c(=O)[nH]1)Nc1nccs1,–,"inconclusive [rising, single point]"
CC(C)(C)OC(=O)NCCc1nnc(SCC(=O)c2ccc(Cl)cc2)o1,–,"inconclusive [rising, partial curve]"
Cc1cc(=O)oc2cc(NS(=O)(=O)c3ccc(F)cc3)ccc12,–,"inconclusive [rising, partial curve]"
CC(=O)CCc1oc2c([N+](=O)[O-])cccc2c1-c1ccc(C)o1,–,active: 10 µM
Cc1ccc(C(CC(=O)N2CCOCC2)c2ccco2)cc1 (stereo unspecified),–,"inconclusive [rising, partial curve]"
O=C(NCc1ccc(F)cc1)c1c2c(nc3ccccc13)CCC2,inactive: -1.03%,–
COc1ccc2c(c1)OCC1=C2CCC2(C)C(=O)CC=C12 (stereo unspecified),–,"inconclusive [rising, partial curve]"
COC(=O)c1ccc(C(=O)OC)c(NC(=O)CSc2cccc[n+]2[O-])c1,–,"inconclusive [rising, partial curve, poor fit]"
O=C(N/N=C/c1cccc([N+](=O)[O-])c1)c1cnccn1,inactive: 1.55%,–
CCCCS(=O)(=O)N1C2=NC(C(=O)OC)=C(C(=O)OC)[C@@H]3N(C)c4ccccc4[C@]23C[C@H]1C(=O)OC,"inactive: -6.61% [at 11.5 µM, 0% is enzyme alone, no compound]",–
Cc1cc(C#Cc2c(-c3ccccc3)n(C)c3ccccc23)ccc1F,inactive: 0.872%,–
Cc1ccc(C2=NN(S(=O)(=O)c3ccccc3)C(c3ccccc3O)C2)cc1 (stereo unspecified),inactive: 2.19%,–
COc1cc(/C=N/NC(=O)c2cccs2)ccc1O,–,"inconclusive [rising, single point]"
O=c1[nH]c2ccc(Cl)cc2c(=O)n1Cc1ccco1,–,"inconclusive [rising, partial curve]"
CC(C)NC(=S)N/N=C/c1cc(Br)ccc1O,inactive: -0.0691%,–
COC(=O)c1cc(O)cc(OC)c1Oc1cc(C)cc(O)c1C(=O)O,–,"inconclusive [rising, full curve]"
Cc1ccc(-n2c(CNc3ccc(F)cc3)nnc2SCC(=O)NCc2ccco2)cc1,–,"inconclusive [rising, single point]"
